Source: PubChem BioAssay AID588453 (National Center for Advancing Translational Sciences (NCATS), 2011)
Screen size: about 390,000 compounds; about 4,000 (1%) were called active. This list was built around the results that the source calls inconclusive (neither active nor inactive); the mix of calls is not that of the screen. Calls come from the whole dose curve; as a rule, active = well fitted inhibition curve with a large enough effect; inconclusive = small, poorly fitted or top-dose-only effect; inactive = no such curve, though single readings can be large or run the other way. Where the call is inconclusive, the potency comes from a doubtful curve fit.

biological target: Thioredoxin reductase 1, cytoplasmic (Rattus norvegicus) (UniProt O89049); assay: qHTS Assay for Inhibitors of Mammalian Selenoprotein Thioredoxin Reductase 1 (TrxR1): qHTS; conditions: recombinant rTrxR1, NADPH fluorescence consumption, selenite substrate; series mostly up to 114 µM; activity change, negative = inhibition: at the top concentration; note: nearly all actives have a fitted effect of over 65% in size
Sequence of UniProt O89049 (O89049 whole entry, looked up): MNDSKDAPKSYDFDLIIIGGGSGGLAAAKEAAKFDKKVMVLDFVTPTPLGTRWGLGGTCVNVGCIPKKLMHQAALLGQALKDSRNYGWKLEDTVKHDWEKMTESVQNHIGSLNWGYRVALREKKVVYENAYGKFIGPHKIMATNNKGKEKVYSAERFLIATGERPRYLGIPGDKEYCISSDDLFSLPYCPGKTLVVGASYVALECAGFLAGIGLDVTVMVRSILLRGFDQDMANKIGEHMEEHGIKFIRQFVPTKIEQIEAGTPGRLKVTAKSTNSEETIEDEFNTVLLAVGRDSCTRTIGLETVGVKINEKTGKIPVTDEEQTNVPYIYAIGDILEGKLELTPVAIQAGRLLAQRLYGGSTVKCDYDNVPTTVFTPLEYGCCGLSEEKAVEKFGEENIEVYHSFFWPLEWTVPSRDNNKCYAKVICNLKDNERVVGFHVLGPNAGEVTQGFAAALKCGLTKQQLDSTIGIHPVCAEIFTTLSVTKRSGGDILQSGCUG
Summary of the method: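 Rat TrxR1 (90 nM in the dispensed reagent) was pre-reduced with 400 uM NADPH for 5 min at room temperature, then incubated with compound for 15 min. After 400 uM selenite was added, NADPH fluorescence (Ex 340/Em 450 nm) was followed for 8 min.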
% is set by controls: 0 for no effect and ±100 for the full control effect; potency is the fitted concentration of half-maximal effect; tags give direction and shape of the fitted curve.

Compound	activity change, negative = inhibition	Potency
Cc1ccc(Cc2nc3ccccc3nc2SCC(=O)N2CCCCC2C)cc1 (stereo unspecified)	inactive: 10.6% [at 57.1 µM]	
COc1cc(C2c3c(n[nH]c3C)C(=O)N2c2ccc(Br)cc2)ccc1O (stereo unspecified)		active: 7.94 µM
COc1ccccc1N1CCN(C(=O)c2cn(C)c3ccc(S(=O)(=O)N4CCOCC4)cc3c2=O)CC1		inconclusive: 89.1 µM [inhibitor, single point]
CCOc1cccc(C=Nc2cc(C)cc(C)c2O)c1O		inconclusive: 50.1 µM [inhibitor, partial curve]
COc1ccc(C)cc1NC(=O)Cn1cc(S(=O)(=O)Cc2ccccc2Cl)c2ccccc21	inactive: 23.4%	
CC1CCN(C(=O)c2ccc(S(=O)(=O)Cc3ccccc3F)c([N+](=O)[O-])c2)CC1		inconclusive: 50.1 µM [inhibitor, partial curve]
Cc1cc(Cl)ccc1NC(=O)CSc1nnc(-c2ccncc2)n1Cc1ccco1	inactive: -20.3%	
Cc1ccc(N2CC(NC(=O)C(=O)c3c[nH]c4ccccc34)CC2=O)cc1 (stereo unspecified)	inactive: 11.1% [at 57.1 µM]	
COc1ccc(NC(=O)Cn2nnc(C(=O)NCc3cccs3)c2N)c(OC)c1	inactive: 10.8%	
CCOc1cc(CNc2ccc(O)cc2)cc(Br)c1OCc1ccccc1F		inconclusive: 89.1 µM [inhibitor, single point]
COc1ccc(C(C#N)N2N=C(C)CC2(C)C)cc1OC (stereo unspecified)		active: 39.8 µM
O=C(COC(=O)CCCN1C(=O)c2cccc3cccc(c23)C1=O)Nc1cccc(C(F)(F)F)c1	inactive: -5.99%	
O=C(NC(NNc1ccc([N+](=O)[O-])cc1)(C(F)(F)F)C(F)(F)F)c1ccccc1Cl		active: 3.16 µM
NS(=O)(=O)c1ccc(-c2ccc(C=NC3CCS(=O)(=O)C3)o2)cc1 (stereo unspecified)		inconclusive: 20 µM [inhibitor, full curve]
COc1cc(NC(=O)c2cc(-c3ccccc3O)no2)cc(OC)c1OC	inactive: 9.59%	
CCCc1cc(NC(=O)CCl)n(-c2ccccc2)n1		active: 50.1 µM
O=C(COC(=O)c1ccc2c(c1[N+](=O)[O-])C(=O)c1ccccc1C2=O)NC1CC1		inconclusive: 39.8 µM [inhibitor, partial curve]
COc1ccc(Oc2c(C=O)c3ccccc3n2C)cc1	inactive: -12.1%	
COc1ccc(C(=O)CSc2nn3c(=O)c(C(C)(C)C)nnc3s2)cc1		inconclusive: 79.4 µM [inhibitor, partial curve, poor fit]
COc1ccc(/C=C2/CCCC(CN(C)C)C2=O)cc1 (stereo unspecified)		inconclusive: 2.51 µM [inhibitor, partial curve, poor fit]
CCOC(=O)c1ccc(N2C(=O)c3n[nH]c(-c4cccs4)c3C2c2ccc(O)c(OC)c2)cc1 (stereo unspecified)		inconclusive: 8.91 µM [inhibitor, partial curve]
Cc1cc(=O)oc2ccc(OCC(=O)N(Cc3ccc(F)cc3)Cc3ccco3)cc12		inconclusive: 44.7 µM [inhibitor, partial curve]
O=c1cc(CO)oc(CN2CCN(c3cccc(C(F)(F)F)c3)CC2)c1O	inactive: -11.4%	

Compound	activity change, negative = inhibition	Potency
COc1cccc(/C=C/C(=O)OCC(=O)NC(=O)NC2CCCC2)c1		inconclusive: 20 µM [inhibitor, single point]
CCOc1ccc(C(C)=O)cc1N1C(=O)C2C3C=CC(C3=C(C)C)C2C1=O (stereo unspecified)		inconclusive: 89.1 µM [inhibitor, single point]
CC1CN(c2cc(=O)n(-c3ccccc3)c(=O)[nH]2)CC(C)O1 (stereo unspecified)		inconclusive: 28.2 µM [inhibitor, single point]
O=C(c1ccc([N+](=O)[O-])o1)N1CCCCCC1		inconclusive: 35.5 µM [inhibitor, partial curve]
NS(=O)(=O)c1ccc(NS(=O)(=O)c2ccc(NC(=S)Nc3ccccc3)cc2)cc1		inconclusive: 31.6 µM [inhibitor, single point]
O=C(Nc1cccc(-c2nc3ncccc3o2)c1)c1ccc(-c2cccc(Cl)c2Cl)o1		inconclusive: 20 µM [inhibitor, full curve]
COc1ccc(OC)c(NC(=O)CSC2=Nc3ccccc3C3=NC(CC(=O)NCc4ccco4)C(=O)N23)c1 (stereo unspecified)	inactive: 5.87% [at 57.1 µM]	
O=S(=O)(c1ccc2c(c1)OCO2)N1CCN(c2nc(-c3cccs3)nc3ccccc23)CC1	inactive: -5.8%	
Cc1nc2ncnn2c(Nc2ccc3c(c2)OCCO3)c1C		inconclusive: 89.1 µM [inhibitor, single point]
NNC(=O)c1ccncc1	inactive: 2.86%	
COc1ccc(-c2n[nH]c(=S)n2N)c(OC)c1		inconclusive: 1 µM [inhibitor, full curve]
Cc1ccccc1NCC(=O)N/N=C\c1ccc2c(c1)OCO2	inactive: -2.66%	
O=C(NCc1ccco1)Nc1ccc2nsnc2c1		inconclusive: 3.98 µM [inhibitor, full curve, poor fit]
O=C(NC(NC(=S)Nc1ccccc1C(=O)O)C(Cl)(Cl)Cl)c1ccco1 (stereo unspecified)		inconclusive: 31.6 µM [inhibitor, partial curve, poor fit]
Cn1nnnc1Sc1ncnc2scc(-c3ccc(-c4ccccc4)cc3)c12	inactive: 22.3%	
Cc1cc(C)c(S(=O)(=O)NCCc2cc3c(C)ccc(C)c3[nH]c2=O)c(C)c1	inactive: -5.1%	
O=C1C=CC(=O)N1CCCCCCCCCCN1C(=O)C=CC1=O		inconclusive: 0.562 µM [inhibitor, partial curve, poor fit]
CN(C)c1ccc(/C=C/c2c3ccccc3cc[n+]2[O-])cc1	inactive: 3.24%	
CC(=O)c1cccc(OCc2cc(C(=O)N3CC4C[C@@H]5CC3C[C@H](C4)C5)no2)c1		inconclusive: 44.7 µM [inhibitor, partial curve]
C[C@@H]1CN([C@@H](C)CO)C(=O)Cc2cc(NC(=O)Nc3ccc(C(F)(F)F)cc3)ccc2O[C@@H]1CN(C)S(=O)(=O)c1ccc(Cl)cc1	inactive: 6.68% [at 57.1 µM]	
CCn1c(CC(=O)Nc2cccc(OC)c2)nnc1SCC(=O)N1CCN(c2ccccc2)CC1		inconclusive: 25.1 µM [inhibitor, single point]
CCc1c(C(=O)N2CCCN(C)CC2)csc1C	inactive: -18.2%	
Brc1ccc(-c2ccc(CNCCSc3nnnn3-c3ccccc3)o2)cc1		inconclusive: 44.7 µM [inhibitor, partial curve]
